Measured values reported in patent publication US20070248589A1 (GOVERNMENT OF THE UNITED STATES OF AMERICA AS REPRESENTED …, published 2007).

Target: T1, Myc-tagged Uba3-clone 346 (mouse, UniProt Q8C878 224-462, 35S-methionine labeled (in the in vitro translated form))
T1 construct: Made by in vitro translation for the GST pulldown and expressed in 293T cells for the co-immunoprecipitation; The place of the tag in the chain is a guess; not shown: Myc tag
T1 sequence: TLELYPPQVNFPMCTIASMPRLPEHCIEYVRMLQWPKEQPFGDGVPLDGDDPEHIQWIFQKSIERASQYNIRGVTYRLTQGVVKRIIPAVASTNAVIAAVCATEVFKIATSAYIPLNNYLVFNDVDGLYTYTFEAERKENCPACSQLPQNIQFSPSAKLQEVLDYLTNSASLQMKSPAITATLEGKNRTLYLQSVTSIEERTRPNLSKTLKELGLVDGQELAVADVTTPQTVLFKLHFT
Experiment: GST pulldown of 35S-labelled in vitro translated Myc-346, autoradiography
Method: Eighteen cDNA clones identified in the yeast two-hybrid system were tested in an in vitro glutathione-S-transferase (GST) pulldown assay, as described in Ausubel et al., Current Protocols in Molecular Biology, Greene Publishing Associates, updated November 2003, Chapter 20, Analysis of Protein Interactions, Unit 20.2, Affinity Purification of Proteins Binding to GST Fusion Proteins.
A coupled in vitro transcription and translation system (Promega) was used according to the manufacturer's instructions to produce radiolabeled protein from cDNAs to be tested. Radiolabeled proteins were mixed with either purified GST or GST-SPATIAL. Then, GST-containing protein complexes were purified by centrifugation from the reaction mixtures using glutathione-coated Sepharose beads. Bound proteins were eluted from the beads with SDS-PAGE loading buffer heated to 72-85° C., separated on polyacrylamide gels, and visualized by autoradiography. Specific interactions between GST-SPATIAL and in vitro translated proteins were indicated by the presence of a radiolabeled in vitro translated protein in the GST-SPATIAL-containing samples, but not in the GST-alone samples.

binding result: no binding
B1: GST alone (other)
chain: not shown
notes: Negative control in the GST pulldown assays; also called glutathione-S-transferase
